In PubChem BioAssay AID1346428 (National Center for Advancing Translational Sciences (NCATS), 2018):
Hit rate of the full screen: of about 48,000 compounds, about 1,200 (2.5%) were called active. Another 2% or so got no clear call; they are omitted.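 The calls were made as follows: active = activation of at least 60% and not above a set upper limit (about 1 call in 100 departs from these limits); inconclusive = activation of 40% to 60%, or above that upper limit; inactive = activation under 40%.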 The list shows a part of the results.

The molecules below were run against Probable G-protein coupled receptor 32 (Homo sapiens) (UniProt O75388) (assay: qHTS for Agonists of Human Resolvin D1 Receptor DRV1). Conditions: CHO-K1 GPR32 beta-arrestin PathHunter luminescence, 90 min; at 76.9 µM; stronger effect = higher value; zero percent set by DMSO-only wells.
Method in brief: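 Using DMSO wells as EC0, agonist-induced signal was taken as chemiluminescence from beta-Gal reconstituted upon beta-arrestin recruitment to GPR32 in CHO-K1 cells after 90 min compound treatment.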

UniProt O75388, sequence (O75388 whole entry, looked up): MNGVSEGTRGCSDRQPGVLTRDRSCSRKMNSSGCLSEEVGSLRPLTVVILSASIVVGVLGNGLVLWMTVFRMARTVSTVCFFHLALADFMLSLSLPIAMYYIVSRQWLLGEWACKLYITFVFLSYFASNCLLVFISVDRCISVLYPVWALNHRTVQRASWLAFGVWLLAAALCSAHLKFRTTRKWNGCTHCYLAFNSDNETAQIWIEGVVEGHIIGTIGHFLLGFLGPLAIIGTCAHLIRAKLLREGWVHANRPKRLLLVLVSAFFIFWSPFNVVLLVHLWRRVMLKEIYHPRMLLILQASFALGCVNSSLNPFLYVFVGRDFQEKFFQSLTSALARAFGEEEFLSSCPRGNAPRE

activation, inactive:
Fc1ccc(C(Nc2ccc(Cl)c(C(F)(F)F)c2)c2nnc(-c3ccccc3)o2)cc1 (centres undefined) -20.1%, COc1cc(OC)c(NC(=O)CCn2cccn2)cc1Cl -4.78%, CN(Cc1ccccc1)C(C(=O)NC1CCCCC1)c1ccc(Cl)cc1 (centres undefined) -6.64%, CC(C)c1ccc(NC(=O)c2cc3c(=O)oc4ccccc4c3s2)cc1 -6.43%, COc1ccccc1NC(=O)c1sc2cccc(Cl)c2c1Cl -6.65%, CCOc1ccc(CCNC(=O)c2cc3c(=O)n(C)c4ccccc4c3s2)cc1OCC 5.07%, CCc1ccc(OCC(=O)NCC(c2ccc(Cl)cc2)N2CCOCC2)cc1 (centres undefined) -10.6%, CCOC(=O)c1ccc2ncc(C(=O)OCC)c(NCCc3ccc(OC)c(OC)c3)c2c1 -22.7%, CCCC12CN3CC(C)(CN(C1)C3c1ccc(CC)cc1)C2=O (centres undefined) -9.47%, Cc1cccc(N2CCN(C(c3ccc(F)cc3)c3nnc(-c4ccccc4)o3)CC2)c1C (centres undefined) -39.4%, COc1cccc(N2CCN(C(=O)c3cnc4c(C)cccn4c3=O)CC2)c1 10.7%, O=c1cc2nc(-c3ccccc3)nc(SCc3cccc(Br)c3)n2[nH]1 -54.1%, CCN1CCN(C(=O)Cn2ncc3c4ccccc4n(Cc4ccccc4F)c3c2=O)CC1 -1.24%, Cc1cccc(NC(=O)CSc2nc3ccccc3c3nc(CCn4cncc4C)nn23)c1 13.7%, CC(C)Oc1ccc(CNC(=O)C2CCN(C(=O)N3CCOc4ccc(Cl)cc43)CC2)cc1 -2.6%, Cc1ccccc1-c1nc(NC(=O)CSc2ncnc3sc4c(c23)CCCC4)ns1 -25.7%, COc1ccc(N2CCN(C(CNC(=O)C(=O)NCc3ccc(C)cc3)c3cccnc3)CC2)cc1 (centres undefined) 0.429%, Cc1cccc(N2CCN(S(=O)(=O)c3ccc(F)c(C(=O)Nc4cccc(Cl)c4C)c3)CC2C)c1 (centres undefined) -2.03%, CCNC(=O)c1c(NC(=O)c2cc(=O)c3ccc(C)c(C)c3o2)sc2c1CCCC2 3.97%, Cc1ccc(Cl)cc1N1CCN(C(=O)C(C)n2ncn3cccc3c2=O)CC1 (centres undefined) 3.11%, CCCCN(CCCC)C(=O)c1cc2c(=O)n3ccccc3nc2s1 -16.2%, Cc1nn(-c2ccccc2)c2c1cc1c(=O)[nH]c(=O)nc-1n2-c1cccc(C(F)(F)F)c1 1.26%, COc1ccc(Nc2ncnc3c2cnn3C)c(OC)c1 -12.8%, O=C(NCCSc1c(-c2ccc(Cl)cc2)[nH]c2ccccc12)c1ccc(S(=O)(=O)N2CCOCC2)cc1 -8.44%, O=S(=O)(Nc1ccc(-c2ccc(N3CCCCCC3)nn2)cc1)c1ccc(C(F)(F)F)cc1 -6.77%, O=C(CN1CCN(Cc2ccc(F)cc2)C1=O)NCc1ccccc1 -2.51%, Cc1ccc2c(c1)-c1onc(C(=O)N3CCN(c4cccc(C)c4C)CC3)c1CO2 10.8%, Cc1cc(C(F)(F)F)c2c(N)c(C(=O)Nc3c(Cl)cccc3Cl)sc2n1 -18.2%, Cc1ccc(-n2nc3c(=O)n(CCCC(=O)NCc4ccc(F)cc4)nc(C)c3c2C)cc1 -8.68%, Cc1cc(C)c(S(=O)(=O)NCC(c2ccco2)N2CCN(c3ccccc3)CC2)c(C)c1 (centres undefined) -41.3%, COc1cccc(-n2cc(C(=O)Oc3ccc(F)cc3)c3ccccc3c2=O)c1 -24.4%, Cc1nn2c(=O)cc(COC(=O)c3ccccc3NC(=O)C(C)C)nc2s1 -19.5%, COc1cc(C(=O)Nc2cccc(OCc3cc(=O)n4c(C)csc4n3)c2)cc(OC)c1OC -2.1%, Cc1noc2ncnc(N3CCCC(C(=O)NCCC(C)C)C3)c12 (centres undefined) 25.6%, COc1ccc(S(=O)(=O)N2CCC(c3nnc(-c4ccccc4C)o3)CC2)c(OC)c1 15.5%, Cc1ccc(S(=O)(=O)c2c(Nc3ccccc3)sc(C(=O)c3ccc4c(c3)OCO4)c2N)cc1 -4.76%, Cc1c(Cl)ccc2sc(NC(=O)c3ccc(S(=O)(=O)N4CCCC4)cc3)nc12 7.84%, COc1ccc(-c2nc(SCC(=O)NCC3CCCO3)c(-c3ccc(Cl)cc3)[nH]2)cc1 (centres undefined) -14.1%, COc1ccc(OC)c(NC(=O)Cn2ccn(-c3ccc(F)cc3)c(=O)c2=O)c1 -7.75%, O=C(NCc1ccc2c(c1)CCN2C(=O)c1ccncc1)c1ccccc1Br 14.9%, COc1ccc(C)cc1S(=O)(=O)Nc1cccc(-c2ccc(N3CCCC3)nn2)c1 34.4%, CCCNC(=O)CCn1nc(-c2ccc(C)cc2)c2ccccc2c1=O -27.4%, Cc1ccc2ncc(C(=O)Nc3cccc(C(F)(F)F)c3)c(=O)n2c1 -6.64%, Cc1cc(C)cc(NC(=O)CN(C)S(=O)(=O)c2ccc3c(c2)CCC(=O)N3)c1 37.3%, Cc1cccc(C(=O)Nc2sc3c(c2C(=O)O)CCCC3)c1 32.5%, CC(=O)c1c(C)oc2ccc(N(C(=O)c3ccncc3)S(=O)(=O)c3ccc(F)cc3C)cc12 -4.62%, COc1ccc(N(CC(=O)N2CCN(c3ccc(F)cc3)CC2)S(=O)(=O)c2c(C)nn(C)c2C)cc1 -13%, CN1CCc2cc(NC(=O)Nc3cccnc3)ccc21 0.866%, COc1cccc(CNC(=O)c2cccc(NC(=O)c3nsc4ccccc34)c2)c1 -10.5%, COc1cc(Cl)c(NC(=O)CN(C)S(=O)(=O)c2ccc3[nH]c4c(c3c2)CCCC4)c(OC)c1 25.8%, CCCOc1ccc(CNC(=O)Cn2c(=O)oc3ccccc32)cc1 45.3%, COc1ccc(NS(=O)(=O)c2ccc3c(c2)n(C)c(=O)c(=O)n3C)cc1Cl 10.5%, Cc1ccc(CNC(=O)c2cnn(-c3ccc(F)cc3F)c2C2CCN(C(=O)OC(C)(C)C)CC2)cc1 -25%, CCCOc1ccc(C2C(=O)N(C3CCCCC3)CC(=O)N2CCC2=CCCCC2)cc1OC (centres undefined) -4.05%, COc1cccc(CNC(=O)CC(c2ccc(C)cc2)N2Cc3ccccc3C2=O)c1 (centres undefined) 15.2%, CCOC(=O)C(CC)Sc1nnc2[nH]c(=O)cc(C)n12 (centres undefined) 4.26%, COc1cccc(CNC(=O)CCS(=O)(=O)c2cc3c4c(c2)CCN4C(=O)CC3)c1 -1.75%, O=C(CSc1n[nH]c(-c2ccccc2)n1)NCCc1ccccc1 1.62%, COc1cc(-c2nc3cnccn3c2Nc2ccc(C(C)C)cc2)ccc1O 28.8%, CCOC(=O)c1cc2c(=O)n3ccccc3nc2n(CC2CCCO2)c1=NC(=O)c1ccccc1F (centres undefined) 18.6%, COc1ccc(CNC(=O)C(C)n2nc(C)c3sc4ccccc4c3c2=O)cc1OC (centres undefined) -15.9%, Cc1ccccc1NC(=O)CSc1nnc(-c2cccc(Cl)c2)o1 -9%, COc1ccccc1-c1ccnc2c(-c3ccc(Br)cc3)c(C)nn12 35.7%, CCc1ccc(Cn2c(CNS(=O)(=O)c3ccc(Cl)s3)nc3cccnc32)cc1 -34.4%, Cc1nn2c(=O)cc(COC(=O)c3ccc(NC(=O)c4ccc(C(C)(C)C)cc4)cc3)nc2s1 -11.7%, Cc1csc2nc(-c3cccc(NC(=O)c4ccccc4F)c3)cn12 17%, COC(=O)c1c(NC(=O)c2c(OC)cccc2OC)sc2c1CCCC2 -9.9%, CC1CCCCN1S(=O)(=O)c1ccc2[nH]c(=O)cc(C(=O)NCCc3ccc(Cl)cc3)c2c1 (centres undefined) -14.1%, CC(C)OCCCNC(=O)CN1C(=O)CSc2ccc(S(=O)(=O)N3CCOCC3)cc21 -13.1%, COc1cccc(NC(=O)c2oc3ccc(S(=O)(=O)N4CCOCC4)cc3c2C)c1 -16.2%, CC(=O)c1cccc(Nc2ncnc3c2cnn3-c2cccc(Cl)c2)c1 -3.74%, COc1cccc(NC(=O)CC2Oc3ccccc3NC2=O)c1 (centres undefined) -0.552%, C=Cc1ccc(Cn2c(C(=O)OC)cc3sc(C)cc32)cc1 -21.6%, CC(=O)Nc1c(C(=O)Nc2ccccc2F)oc2ccccc12 15.8%, CCc1ccc(Nc2nc3c(S(=O)(=O)c4cccc(Cl)c4)nnn3c3ccsc23)cc1 -6.56%, CNc1nc(Oc2ccc(=O)[nH]n2)nc(N2CCOCC2)n1 5.89%, COc1ccc(-n2cc(C(=O)Nc3ccccc3C#N)c3ccccc3c2=O)cc1 -20%, CC(C)(C)c1ccc(S(=O)(=O)N2CCC(c3ccncc3)CC2)cc1 -0.669%, CCOc1ccc(NC(=O)Cn2c(=O)n(Cc3ccccc3)c(=O)c3c4c(sc32)CN(C(C)=O)CC4)cc1 -3.05%, Cc1ccc(NC(=O)CN2C(=O)COc3ccc(S(=O)(=O)N4CCOCC4)cc32)c(Cl)c1 -37.6%, COc1cccc(-n2cc(C(=O)Nc3ccccc3C(N)=O)c3ccccc3c2=O)c1 -11.4%, Cc1nc(SCCOc2ccc(Cl)cc2)[nH]c(=O)c1Cc1ccccc1 -1.56%, O=C(c1cccc([N+](=O)[O-])c1)N1CCN(CCc2ccncc2)CC1 -5.31%, CCOc1ccccc1NC(=O)c1nn(-c2ccc(OC)cc2)c(=O)c2c1c1ccccc1n2C -1.89%
